Assay results: US20190374601A1, “METHODS FOR TREATING FUNGAL INFECTIONS” (priority 2017, published 2019)
Where “and” joins values, the source holds several entries; their conditions need not be identical. Equal entries are not always repeated. This continues a long series; more values of the same kind are listed elsewhere. Starred links: 1 amine or outer side, 2 acyl side, 3 side chain; linkers in the order of their positions; H or OH if unused. Positions of bridges follow the written chain, without caps; N, C: chain ends. Non-standard residues stand in square brackets, D forms with d. Residues, ends and D or L forms follow the SMILES beside them. *: point of attachment. Orn(4R-OH,5R-OCH2CH2NMe3+) = C[N+](C)(C)CCO[C@@H](N[*:3])[C@H](O)C[C@H](N[*:1])C(=O)[*:2]; pTerphenylCO(4''-OnC5H11) = CCCCCOc1ccc(-c2ccc(-c3ccc(C(=O)*)cc3)cc2)cc1; hTyr(3S-OH,4S-OH) = N[C@H](C(=O)O)[C@H](O)[C@@H](O)c1ccc(O)cc1; Pro(3S-OH,4S-Me) = C[C@H]1CN[C@H](C(=O)O)[C@H]1O; Hyp = O=C(O)[C@@H]1C[C@@H](O)CN1

Experiment: Tissue concentration of subcutaneously injected CD101 in cynomolgus monkeys
Type: in vivo
Details: for CD101 Concentration: individual animals, at necropsy; for Mean Concentration: mean of males and females
Method: In this study, the tissue concentration of subcutaneously injected CD101 was evaluated in cynomolgus monkeys.
Dose levels were 30, 60, and 120 mg/kg/dose for Groups 2, 3, and 4, respectively. […] The dose volumes were 1.2, 0.3, 0.6, and 1.2 mL/kg spread evenly over 4, 1, 2, and 4 dose sites for Groups 1-4, respectively, on each day of dosing. The control and 120 mg/kg/dose groups each consisted of 5 males and 5 females, and the 30 and 60 mg/kg/dose groups each consisted of 3 males and 3 females.
The animals were observed twice daily for mortality and moribundity. Clinical examinations were performed once daily for at least 6 consecutive days, including the day of randomization, prior to randomization, prior to dosing, 1-2 hours postdosing, once daily on nondosing days, and once daily during the recovery period. Detailed physical examinations were performed at least weekly during the acclimation period until randomization, on the day of randomization, weekly (±2 days) during the study period, and on the day of the scheduled necropsies. Injection site (IS) observations were performed prior to dosing (dose sites that were utilized on that day of dosing), 1-2 hours postdosing (dose sites that were utilized on that day of dosing), once daily on nondosing days (dose sites that had been previously been utilized), and twice weekly during the recovery period. Individual body weights were recorded weekly (±2 days). Individual body weights were collected at least weekly during the acclimation period until randomization, on the day of randomization, Study Day 0 (prior to dosing), weekly (2±days) during the study period, on the day prior to the day of the scheduled necropsies (nonfasted) and on the day of the scheduled necropsies (fasted). Clinical pathology parameters (hematology, coagulation, serum chemistry, and urinalysis) were analyzed during acclimation prior to randomization (Study Day −15), and on the day of the primary (Study Day 17) and recovery (Study Day 45) necropsies. Blood samples for toxicokinetic evaluation were collected from all animals/sex/group/time point prior to dose administration and at approximately 1, 2, 4, 8, 24, 48, and 72 hours after dose administration on Study Days 0 and 12. Complete necropsies were performed on all animals, and selected organs were weighed at the scheduled necropsies. Selected tissues were examined microscopically from all animals. Fingernail, toenail, nail bed, and abdominal skin samples were collected from all animals at the scheduled necropsies for bioanalytical analysis.

CCCCCOc1ccc(-c2ccc(-c3ccc(C(=O)N[C@H]4C[C@@H](O)[C@@H](OCC[N+](C)(C)C)NC(=O)[C@@H]5[C@@H](O)[C@@H](C)CN5C(=O)[C@H]([C@@H](C)O)NC(=O)[C@H]([C@H](O)[C@@H](O)c5ccc(O)cc5)NC(=O)[C@@H]5C[C@@H](O)CN5C(=O)[C@H]([C@@H](C)O)NC4=O)cc3)cc2)cc1 [CD101] ({pTerphenylCO(4''-OnC5H11)}-[Orn(4R-OH,5R-OCH2CH2NMe3+)]T[Hyp][hTyr(3S-OH,4S-OH)]T[Pro(3S-OH,4S-Me)]; lactam 1-C)
CD101 Concentration (Fingernail, 30 mg/kg/dose SC once every 3 days (5 doses), 30 mg/kg): 90.0 µg/g | Mean Concentration (Fingernail, 30 mg/kg/dose SC): 85.5 µg/g | CD101 Concentration (Skin, 30 mg/kg/dose SC once every 3 days (5 doses), 30 mg/kg): 40.9 µg/g and 32.4 µg/g and 42.8 µg/g | Mean Concentration (Skin, 30 mg/kg/dose SC): 40.4 µg/g | CD101 Concentration (Toenail bed, 30 mg/kg/dose SC once every 3 days (5 doses), 30 mg/kg): 49.3 µg/g | CD101 Concentration (Toenail bed, 60 mg/kg/dose SC once every 3 days (5 doses), 60 mg/kg): 196 µg/g and 116 µg/g and 182 µg/g and 129 µg/g and 165 µg/g and 149 µg/g | Mean Concentration (Toenail bed, 60 mg/kg/dose SC): 156 µg/g | CD101 Concentration (Toenail bed, 120 mg/kg/dose SC once every 3 days (5 doses), 120 mg/kg): 166 µg/g and 337 µg/g and 72.2 µg/g and 54.1 µg/g and 238 µg/g and 136 µg/g and 168 µg/g and 90.6 µg/g and 165 µg/g and 81.6 µg/g | Mean Concentration (Toenail bed, 120 mg/kg/dose SC): 151 µg/g
